# According to the supplement of paper PMC8728848:
# The other results are listed elsewhere or left out.
# B1: RBMC1 (Vibrio cholerae) (protein)
# chain: QQSQRVVTADNLMYLRSGFAIDAIGTTVNNLVGGPVQGTNGGVLRAPIALDQLQSVEVTSGLYNWGGYHIVAIKFTMKDGSSVLLGSTHYASNKKVETYTVPQGKRIKQINVWTGGWLVEGFQFVY
# Molecular target: Neu5Gc(b2-6)Gal(b1-4)GlcNAc
# Test: glycan array binding signal (z-score within array); higher = stronger binding
# Conditions: glycan notation: IUPAC condensed, linker removed
# Method in brief: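 From the Consortium for Functional Glycomics database, 3228 arrays were curated, keeping only those whose protein sequence was available. Binding is given as a within-array Z-score averaged across arrays sharing a protein sequence and across linkers. Negative Z-scores can be read as non-binding.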
binder,measurement,value
B1,glycan array binding signal (z-score),-0.184
